# Results taken from the supplement of paper PMC3334620.
# In all, about 33,000 sequences were measured (“E-score (-0.5 to 0.5)”: median about -0.035, highest 2% from about 0.35 on). The list shows a part of the results.
# Target: T1, Pdr3 (UniProt P33200)
# T1 sequence: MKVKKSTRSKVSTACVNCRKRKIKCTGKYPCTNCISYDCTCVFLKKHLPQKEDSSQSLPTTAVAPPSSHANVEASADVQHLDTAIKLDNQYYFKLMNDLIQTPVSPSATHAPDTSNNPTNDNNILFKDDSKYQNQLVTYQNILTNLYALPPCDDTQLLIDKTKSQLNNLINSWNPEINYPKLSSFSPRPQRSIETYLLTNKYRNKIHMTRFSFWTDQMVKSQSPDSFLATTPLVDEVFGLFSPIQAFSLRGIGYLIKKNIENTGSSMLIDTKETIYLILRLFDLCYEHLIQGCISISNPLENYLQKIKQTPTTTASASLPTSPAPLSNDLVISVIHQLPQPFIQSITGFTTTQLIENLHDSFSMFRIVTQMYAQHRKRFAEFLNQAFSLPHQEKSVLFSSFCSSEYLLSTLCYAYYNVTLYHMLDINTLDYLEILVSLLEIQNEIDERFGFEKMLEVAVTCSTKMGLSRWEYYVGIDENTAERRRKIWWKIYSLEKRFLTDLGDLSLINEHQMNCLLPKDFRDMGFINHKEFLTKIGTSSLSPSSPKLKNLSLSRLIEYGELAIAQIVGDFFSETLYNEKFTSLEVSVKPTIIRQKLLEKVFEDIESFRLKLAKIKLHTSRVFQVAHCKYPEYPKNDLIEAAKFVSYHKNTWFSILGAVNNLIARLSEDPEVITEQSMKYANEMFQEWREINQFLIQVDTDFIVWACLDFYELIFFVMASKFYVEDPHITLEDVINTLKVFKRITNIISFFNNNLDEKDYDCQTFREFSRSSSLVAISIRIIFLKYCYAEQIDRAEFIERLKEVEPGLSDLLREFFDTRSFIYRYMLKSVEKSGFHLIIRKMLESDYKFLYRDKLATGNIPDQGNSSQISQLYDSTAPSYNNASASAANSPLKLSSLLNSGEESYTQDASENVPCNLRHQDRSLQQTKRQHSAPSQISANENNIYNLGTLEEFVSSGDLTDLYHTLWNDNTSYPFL
# Experiment: PBM E-score (8-mer binding enrichment) (E-score (-0.5 to 0.5)); higher = stronger / more preferred TF binding; most listed sequences are background and not binding sites
# Conditions: protein concentration: 200 nM; construct: GST-full length
# Outline: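 Masliner-normalised scans of fluorescent anti-GST signal were the basis for scoring. That signal came from GST-tagged yeast transcription factors applied at about 100-200 nM to double-stranded universal all-10-mer Agilent arrays on fresh or once-stripped slides. Each ungapped eight-base word, pooled with its reverse complement, received an E-score from the Universal PBM Analysis Suite.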
row,Sequence,PBM E-score
1,ACCCCGGA,0.352
2,TGTACACA,-0.266
3,ATTAAGAC,-0.289
4,CCTGATTC,0.0544
5,ATATCACG,-0.0463
6,CGCATAAA,-0.074
7,CGCGTCAG,-0.0796
8,GAGAGGAA,-0.128
9,ATACTCAT,-0.11
10,ACCAGAAC,0.0531
11,AGAAAGGA,-0.191
12,ATTTAACA,0.00265
13,AATCAAAT,0.116
14,AGGCAGGC,-0.0703
15,ATGGACAA,-0.148
16,AGGGTATG,-0.154
17,CCAATTCC,0.279
18,ATTATCGC,0.00543
19,CGGAAAAA,0.403
20,AACTGTGG,0.073
21,AAGGCATC,-0.216
22,CTAAAGCA,-0.0427

row,Sequence,PBM E-score
1,ATGTATCG,0.0406
2,ATCAGGTG,-0.0026
3,GTGTAAAC,-0.142
4,CTAGAGTC,-0.359
5,AGAGACTC,-0.155
6,CGAGTGCG,0.2
7,AGCCAACC,0.0898
8,AAGACGAC,-0.103
9,TGAGATCA,0.0786
10,CTTCTTCC,0.0547
11,ACCGGGGA,0.0294
12,ACACTGCA,-0.0473
13,ACGTTTGG,-0.248
14,AGTAGCTC,0.0104
15,ATATGCCG,0.208
16,TAGTTTCA,0.0772
17,GTAAATAA,-0.128
18,GACAGTCA,0.00968
19,AGGACATA,-0.214
20,GACATAAA,-0.0161
21,GTCCTGTA,-0.0662
22,GTATCCTA,-0.125

row,Sequence,PBM E-score
1,CACAGACG,-0.141
2,TACATGAA,-0.132
3,CACCTCGG,0.276
4,ACTGGACT,-0.295
5,GGAACTCC,0.366
6,GTACCCGA,0.103
7,ACACTGCT,-0.268
8,CTCTCCGA,0.179
9,GATACACA,-0.123
10,CATTTTGG,-0.159
11,CTAAATCA,-0.153
12,AGAAATAG,-0.195
13,ACTTCTAA,-0.097
14,GCCCGTCC,0.187
15,TACTTGCA,-0.102
16,ACGGTACG,0.0442
17,CCTACATA,-0.14
18,GGGTCTGA,0.0223
19,AGTCGAAA,-0.085
20,AGGTTCTG,-0.271
21,GTGGCATA,-0.0548
22,TGCCAGAA,-0.148

row,Sequence,PBM E-score
1,GAGAAGAA,0.0956
2,ACTGAGAG,-0.107
3,AGCGATTG,-0.00592
4,ACTTTAAT,-0.0155
5,ATGCAGTA,0.044
6,GAAAGAGA,0.079
7,ACCGTCCC,0.171
8,CTTCTAGA,-0.249
9,ATCCGCTG,0.22
10,AACTTCCG,0.388
11,GTATTCAA,0.0848
12,ACGGAGCG,0.337
13,AACAGAAT,-0.162
14,CACCTGCG,-0.0389
15,ATATTGGC,0.0402
16,CCGGGTGA,0.404
17,CTCGGCAG,0.219
18,AAGTGCGT,-0.216
19,AAGCACCT,-0.183
20,GCATAAAA,-0.0786
